First the molecules themselves.
B1: PhoQ; a variant is named by its letters at X, in order, P23837 (parent)
chain: MKKLLRLFFPLSLRVRFLLATAAVVLVLSLAYGMVALIGYSVSFDKTTFRLLRGESNLFYTLAKWENNKLHVELPENIDKQSPTMTLIYDENGQLLWAQRDVPWLMKMIQPDWLKSNGFHEIEADVNDTSLLLSGDHSIQQQLQEVREDDDDAEMTHSVAVNVYPATSRMPKLTIVVVDTIPVELKSSYMVWSWFIYVLSANLLLVIPLLWVAAWWSLRPIEALAKEVRELEEHNRELLNPATTRELTSLVRNLNRLLKSERERYDKYRTTLTDLTHSLKTPLXXLQXXLRSLRSEKMSVSDAEPVMLEQISRISQQIGYYLHRASMRGGTLLSRELHPVAPLLDNLTSALNKVYQRKGVNISLDISPEISFVGEQNDFVEVMGNVLDNACKYCLEFVEISARQTDEHLYIVVEDDGPGIPLSKREVIFDRGQRVDTLRPGQGVGLAVAREITEQYEGKIVAGESMLGGARMEVIFGRQHSAPKDE

The other results are listed elsewhere or left out.

This experiment covers variants of B1. The experiment is described as follows: enrichment ratio after two sorts for PhoP signalling (ratio (wild type AVST 3.29)); higher = more functional. The conditions noted are these: with PhoP (E. coli).
In the case of PKTY, the enrichment ratio was no more than 0.25. On to HIKK, for which the enrichment ratio was no more than 0.25. On to TWCN, for which the enrichment ratio is no more than 0.25. KFKN: the enrichment ratio is no more than 0.25. As to NTIR, the enrichment ratio is no more than 0.25.

Consider IELL, for which the enrichment ratio was no more than 0.25. As to DRVI, the enrichment ratio was no more than 0.25. As for QGPH, the enrichment ratio is no more than 0.25.

Take HLHE: the enrichment ratio was no more than 0.25. With YILD, the enrichment ratio is no more than 0.25. On to VQGT, for which the enrichment ratio was no more than 0.25. Turning to SMVL, the enrichment ratio was 3.56. In the case of LEDK, the enrichment ratio is no more than 0.25.

Regarding QMTN, the enrichment ratio is no more than 0.25.

As to LWHH, the enrichment ratio is no more than 0.25.

As for DFGN, the enrichment ratio was no more than 0.25. The value for YPIC was no more than 0.25; that for QSWA was 14.9.

As for EFAK, the enrichment ratio is no more than 0.25. On to GEVK, for which the enrichment ratio was no more than 0.25.

With DEGT, the enrichment ratio was no more than 0.25.

Turning to KMSL, the enrichment ratio is no more than 0.25. In the case of QCCI it was no more than 0.25; in that of NPMQ, no more than 0.25; in that of AAYS, no more than 0.25. The value for DLRN was no more than 0.25.

As for QWHS, the enrichment ratio was no more than 0.25. Regarding FKNQ, the enrichment ratio is no more than 0.25. DMHA: the enrichment ratio was no more than 0.25.

Turning to LKVL, the enrichment ratio is no more than 0.25.

With PITD, the enrichment ratio was no more than 0.25. Take PTSI: the enrichment ratio was no more than 0.25. As to SPMR, the enrichment ratio is no more than 0.25. On to NDWF, for which the enrichment ratio is no more than 0.25.

As for KDNR, the enrichment ratio is no more than 0.25.

Turning to EQMD, the enrichment ratio is no more than 0.25. Turning to ELRV, the enrichment ratio is no more than 0.25. Regarding HWYS, the enrichment ratio was no more than 0.25.

With VYGE, the enrichment ratio is no more than 0.25.

EPML: the enrichment ratio was no more than 0.25. Consider WSES, for which the enrichment ratio was no more than 0.25. In the case of GWDV it was no more than 0.25; in that of AWAV, no more than 0.25. As for APLQ, the enrichment ratio was no more than 0.25. Consider RHQV, for which the enrichment ratio is no more than 0.25.

Consider IHDV, for which the enrichment ratio is no more than 0.25. For the variant TYFP, the enrichment ratio was no more than 0.25. The value for QPNT was no more than 0.25. Consider QYPR, for which the enrichment ratio was no more than 0.25. With CIFD, the enrichment ratio was no more than 0.25.

In the case of QDHW, the enrichment ratio was no more than 0.25. In the case of REPD, the enrichment ratio was no more than 0.25.

Regarding KQLF, the enrichment ratio is no more than 0.25. For the variant QIAA, the enrichment ratio was no more than 0.25. The value for ILLV was no more than 0.25; that for EVGW was no more than 0.25; that for IEIW was no more than 0.25. With GITD, the enrichment ratio is no more than 0.25. In the case of HWTG, the enrichment ratio is no more than 0.25. As for TQMD, the enrichment ratio is 63. The value for DIAK was no more than 0.25; that for MHKQ was no more than 0.25. The value for SSKN was no more than 0.25.

SQAR: the enrichment ratio is no more than 0.25. For SDRI, the enrichment ratio is no more than 0.25.

Regarding FVSM, the enrichment ratio is no more than 0.25. In the case of SYQK it was no more than 0.25; in that of EISL, 4.88; in that of DYNS, no more than 0.25. Take CLRI: the enrichment ratio is no more than 0.25. In the case of ARHK it was no more than 0.25; in that of VGVM, no more than 0.25. Regarding VWST, the enrichment ratio is no more than 0.25. As to GPGV, the enrichment ratio was no more than 0.25.

For the variant GWLD, the enrichment ratio was no more than 0.25. Turning to IDNL, the enrichment ratio is no more than 0.25. Take RETL: the enrichment ratio was no more than 0.25. As to LTYN, the enrichment ratio is no more than 0.25. RYAN: the enrichment ratio was no more than 0.25.

Take VNLA: the enrichment ratio is 0.581.

For the variant QMDI, the enrichment ratio is no more than 0.25.

As to QGAW, the enrichment ratio is no more than 0.25. HDAY: the enrichment ratio was no more than 0.25. On to QLKA, for which the enrichment ratio is no more than 0.25. Consider FQAH, for which the enrichment ratio is no more than 0.25. In the case of QMTA, the enrichment ratio was no more than 0.25. In the case of NRFK, the enrichment ratio was no more than 0.25. The value for FCAQ was no more than 0.25; that for AFPP was no more than 0.25; that for MDTL was no more than 0.25. On to PSGW, for which the enrichment ratio is no more than 0.25. The value for FSAF was no more than 0.25. Take MMIR: the enrichment ratio is no more than 0.25.

For the variant IWDQ, the enrichment ratio is no more than 0.25. The value for DCHH was no more than 0.25. In the case of QVPW, the enrichment ratio is no more than 0.25.

As for QHIA, the enrichment ratio was no more than 0.25. In the case of LHTE it was no more than 0.25.

Take ACAH: the enrichment ratio is 4.6. WYTD: the enrichment ratio is no more than 0.25. For FCFD, the enrichment ratio was no more than 0.25.

Take LYNR: the enrichment ratio was no more than 0.25. In the case of TIYR it was 2.57; in that of DSPH, no more than 0.25; in that of WFNH, no more than 0.25. In the case of LPAA it was no more than 0.25; in that of YPKC, no more than 0.25; in that of DHFL, no more than 0.25. On to DHGS, for which the enrichment ratio is no more than 0.25. As to EPCT, the enrichment ratio is no more than 0.25. As to SYPH, the enrichment ratio was no more than 0.25. On to PGCC, for which the enrichment ratio was no more than 0.25.

With SIVP, the enrichment ratio was no more than 0.25. Consider YSAE, for which the enrichment ratio is no more than 0.25. As to QVRC, the enrichment ratio was no more than 0.25. Turning to IRKM, the enrichment ratio was no more than 0.25. Take WTRW: the enrichment ratio is no more than 0.25. The value for PWKI was no more than 0.25. With LCLQ, the enrichment ratio is no more than 0.25.

As to MPGP, the enrichment ratio is no more than 0.25. For AEEH, the enrichment ratio was no more than 0.25.

On to IDAI, for which the enrichment ratio was no more than 0.25. The value for INEF was no more than 0.25. AYRC: the enrichment ratio was no more than 0.25.

On to ICHP, for which the enrichment ratio is no more than 0.25. For NPHT, the enrichment ratio was no more than 0.25.

Turning to NAFL, the enrichment ratio worked out at 0.25. Consider IHGG, for which the enrichment ratio is no more than 0.25. MLSV: the enrichment ratio is no more than 0.25. Consider NENG, for which the enrichment ratio was no more than 0.25. As for VENN, the enrichment ratio was no more than 0.25. As to IYEH, the enrichment ratio was no more than 0.25. In the case of QRNF, the enrichment ratio was no more than 0.25. As to PTFT, the enrichment ratio was no more than 0.25. As to HRHE, the enrichment ratio is no more than 0.25. Consider LFPA, for which the enrichment ratio was no more than 0.25.

As to ISQC, the enrichment ratio is no more than 0.25. The value for ADKF was no more than 0.25.

As for RGDS, the enrichment ratio was no more than 0.25. In the case of FHQR it was no more than 0.25; in that of PFYP, no more than 0.25; in that of HECV, 15.4. In the case of MDQL, the enrichment ratio was no more than 0.25. As for LCFK, the enrichment ratio was no more than 0.25. Consider ADVW, for which the enrichment ratio is no more than 0.25. Take NFDR: the enrichment ratio is no more than 0.25. As for GGGV, the enrichment ratio turned out to be 2.7.

Consider QPLW, for which the enrichment ratio is no more than 0.25. For the variant IPVT, the enrichment ratio was no more than 0.25. As for DMSS, the enrichment ratio was no more than 0.25. With DWAP, the enrichment ratio was no more than 0.25. On to DMMY, for which the enrichment ratio was no more than 0.25.

For the variant RADG, the enrichment ratio is no more than 0.25.
